The structures appear in SMILES notation. The whole screen tested about 52,000 compounds, of which about 4,300 (8.3%) were called active. Rule as the data show it: active = survival mostly below about 52% (no sharp cut-off); inactive = mostly above about 56%. The list shows a part of the results.

This test relates to DeltatarO mutant. Briefly: S. aureus survival, RN4220 and DeltatarO strains – OD600, teichoic acid synthesis inhibitors, primary screen (AID 463173). The following applies: S. aureus RN4220 wild type/DeltatarO growth, OD600, 18 h, hits give low values, screened at 18.75 µg/mL (by protocol).
For `CCn1c(SCc2ccc(F)cc2Cl)nc(=O)c2c(C(=O)OC)cc(C3CC3)nc21`, the survival was inactive: 82%.
`CC(C)C1N=C2c3ccccc3N=C(SCC(=O)NCc3ccccc3Cl)N2C1=O` (stereo not drawn): the survival was inactive: 99%.
Regarding `Cc1ccc(CNC(=O)c2cc(-c3ccc(C)cc3)nc3n[nH]c(-c4ccc(F)cc4)c23)cc1`, the survival was inactive: 85%.
For `CCCn1c(=O)c2sccc2n2c(CCCC(=O)Nc3ccc(Oc4ccccc4)cc3)nnc12`, the survival was inactive: 88%.
Turning to `CCOC(=O)C1CCN(S(=O)(=O)c2ccc(N3CCCCS3(=O)=O)cc2)CC1`, the survival was inactive: 80%.
Consider `COc1ccc(CNC(=O)c2ccc3c(c2)N(Cc2ccccc2C)C(=O)c2ccccc2S3=O)cc1` (stereo not drawn), for which the survival was inactive: 99%.
Turning to `O=C(NCc1ccc(F)cc1)C1CCN(c2ncnc3c2nc2n3CCCCC2)CC1`, the survival was inactive: 86%.
For `O=C(CSc1nnc(Cn2nnc3ccccc32)o1)N1c2ccccc2CCc2ccccc21`, the survival is inactive: 83%.
As for `COc1ccc(CNc2oc(/C=C/c3cccc(OC)c3)nc2C#N)cc1`, the survival is inactive: 63%.
`O=C(CN1CCC(N2CCCCC2)CC1)c1ccc2c(c1)OCCO2`: the survival is inactive: 83%.
In the case of `COc1ccc(OC)c(CNC(=O)c2c(C)oc3ncn(C)c(=O)c23)c1`, the survival is inactive: 83%.
In the case of `O=C(c1ccc2c(c1)CCN2S(=O)(=O)c1ccc(Cl)cc1)N1CCN(c2ccccc2)CC1`, the survival is inactive: 58%.
On to `CCOc1ccc(CN2C(=O)c3ccccc3Sc3ccc(C(=O)OC)cc32)cc1`, for which the survival was inactive: 75%.
As to `CC(=O)Nc1ccc(S(=O)(=O)NCc2cccn2Cc2cccc(C)c2)cc1`, the survival was inactive: 83%.
Consider `Cc1ccc(CSc2nc(-c3ccc(C(C)(C)C)cc3)nc3cc(=O)[nH]n23)cc1`, for which the survival is inactive: 89%.
Take `CCc1ccc(Nc2sc(C(=O)c3ccccc3)c(N)c2S(C)(=O)=O)cc1`: the survival was inactive: 70%.
As for `CCOCCc1nn2c(=O)cc(COC(=O)CNC(=O)c3ccc(F)cc3)nc2s1`, the survival was inactive: 94%.
For `CCOc1ccc(CC(=O)NCCc2csc(-c3ccc(Cl)cc3)n2)cc1`, the survival was inactive: 67%.
As for `CN(Cc1ccccc1)C(=O)c1cccc(NC(=O)c2nsc3ccccc23)c1`, the figure is inactive: 85%; as for `COc1cc(C(CC(=O)Nc2cc(C)ccc2C)N2Cc3ccccc3C2=O)cc(OC)c1OC` (stereo not drawn), inactive: 86%; as for `CC(C)(C)OC(=O)N1CCC(c2c(C(=O)N3CCN(c4ccccn4)CC3)cnn2-c2ccccc2Cl)CC1`, inactive: 54%.
Next, `CC(=O)c1ccc(NC(c2ccc(F)cc2)c2nnc(-c3ccccc3)o2)cc1` (stereo not drawn): inactive: 77%.
As to `CCOC(=O)c1[nH]c(C)c(CCC(=O)N2CCN(c3cccc(C)c3C)CC2)c1C`, the survival was inactive: 83%.
Next, `CCOCCCNC(=O)c1cn(CC)c2ccc(S(=O)(=O)N3CCc4ccccc4C3)cc2c1=O`: inactive: 85%.
`Cc1cccc(NS(=O)(=O)c2ccc(NC(=O)N3CCCC3)cc2)c1`: the survival was inactive: 88%.
Regarding `CCOc1ccc(-c2oc3cc(Cl)ccc3c(=O)c2O)cc1OC`, the survival is inactive: 85%.
As for `CCOC(=O)c1cc(C)n(CC2CCC(C(=O)Nc3ccc(C(=O)OC)cc3)CC2)c1C` (stereo not drawn), the figure is inactive: 69%; as for `Cc1ccccc1CNC(=O)Nc1ccc2c(c1)N(C)C(=O)c1ccccc1S2`, active: 63%.
As for `COc1ccc(C2CC(=O)N(Cc3ccccc3)c3c2c(C)nn3-c2nc(C)cc(C)n2)c(OC)c1` (stereo not drawn), the survival is inactive: 92%.
Take `COc1ccc(-n2nc3ccc(NS(C)(=O)=O)cc3n2)cc1Cl`: the survival is inactive: 70%.
As for `O=C(CCOc1ccccc1)N(Cc1cccnc1)c1nc2ccc(F)cc2s1`, the survival was inactive: 94%.
Next, `O=C(Nc1ccc2oc(-c3ccc(Cl)cc3)nc2c1)c1ccc2ccccc2c1`: inactive: 72%.
For `Cc1ccc2nc(SCC(=O)NCc3ccco3)c(C)cc2c1`, the survival is inactive: 84%.
As for `CCN(CC)c1cc(C)c2cc(NC(=O)c3ccc(F)cc3Cl)ccc2n1`, the figure is active: 39%; as for `Cn1c(=O)oc2cc(S(=O)(=O)N3CCC(C(=O)N4CCN(c5ccc(Cl)cc5)CC4)CC3)ccc21`, inactive: 56%; as for `CCOc1ccccc1NC(c1nnc(-c2ccccc2)o1)c1ccc(F)cc1Cl` (stereo not drawn), active: 1%.
Take `CCN(C(=O)c1cc2c(=O)oc3ccc(C)cc3c2s1)c1ccccc1F`: the survival was inactive: 73%.
On to `CC(C)CN(CCNC(=O)c1cn(C)c2ccc(S(=O)(=O)N3CCCC3)cc2c1=O)CC(C)C`, for which the survival was inactive: 141%.
Regarding `CCCN(C(=O)CCNC(=O)Cn1cnc2ccccc2c1=O)c1cccc(C)c1`, the survival is inactive: 67%.
As for `Cc1nn(-c2ccc(N3CCCCC3)nn2)c(C)c1CCC(=O)NCc1ccc(Cl)cc1`, the figure is inactive: 79%; as for `CCc1ccccc1NC(=O)Cn1cc2c(n1)CCC(C)C2` (stereo not drawn), inactive: 82%.
For the molecule `O=c1cc(-c2ccccc2)c2ccc3c(c2o1)CN(Cc1ccccc1)CO3`, the survival was inactive: 85%.
`CCc1ccc(NS(=O)(=O)c2ccc3[nH]cc(C(=O)N(C)Cc4ccco4)c(=O)c3c2)cc1`: the survival is inactive: 72%.
As to `CCOC(=O)c1c(NC(=O)c2cc(Cl)ccc2Cl)sc2c1CCCC2`, the survival was inactive: 72%.
As to `COc1ccc(OC)c(NC(=O)c2cc(=O)c3c(C)cc(C)cc3o2)c1`, the survival is active: 42%.
Next, `Cc1ccc(CNc2nccn(-c3cc(C)cc(C)c3)c2=O)cc1`: inactive: 95%; `CN(C(=O)CSc1nc2ccc(NC(=O)COc3ccccc3)cc2s1)c1ccccc1`: inactive: 69%.
As for `CCC(C)NC(=O)c1sc2ncccc2c1-n1c(C)ccc1C` (stereo not drawn), the figure is inactive: 115%; as for `O=C(NCc1ccco1)C(c1ccccc1)N(C(=O)Cc1cccs1)c1cccnc1` (stereo not drawn), inactive: 83%; as for `CCCc1cc(=O)[nH]c(Nc2cc(Cl)ccc2OC)n1`, inactive: 68%.
Take `CCOc1cc(C2c3c(oc4ccccc4c3=O)C(=O)N2c2ccccn2)ccc1O` (stereo not drawn): the survival was inactive: 109%.
As for `Cc1cccc(NC(=O)COc2cccc3c(=O)n(C)ccc23)c1C`, the survival was inactive: 94%.
Regarding `CCOC(=O)c1ccc2[nH]c(CSc3nnc(-c4cccc(F)c4)n3C)cc(=O)c2c1`, the survival is inactive: 91%.
As for `COc1ccc(C2Oc3nc(SC)nnc3-c3ccccc3N2C(C)=O)cc1` (stereo not drawn), the survival is inactive: 46%.
As for `CCc1ccc(-n2nc(CO)c(C(=O)NCc3ccccc3OC)n2)cc1`, the survival is inactive: 62%.
For `COCCCn1c(=O)c2sccc2n2c(CCCC(=O)NCc3ccc(F)cc3)nnc12`, the survival is inactive: 92%.
Turning to `CCn1cc(S(=O)(=O)c2cccc(C)c2)c(=O)c2cc(F)c(N3CCN(c4ccccc4)CC3)cc21`, the survival was inactive: 84%.
Take `Cc1ccc2[nH]c3c(=O)n(CC(=O)NCCc4ccc(Cl)cc4)ncc3c2c1`: the survival was inactive: 88%.
For `COc1ccc(NC(=O)C2CCN(c3cnccn3)CC2)cc1Cl`, the survival is inactive: 73%.
On to `Cc1cn2c(=O)c(S(=O)(=O)NCc3ccccc3Cl)c(C)nc2s1`, for which the survival is inactive: 66%.
As for `Cc1cc(C)n(CCc2nc3c4ccccc4nc(N4CCN(c5ccc(F)cc5)CC4)n3n2)n1`, the figure is inactive: 70%; as for `CCN(C(=O)CSc1nc2n[nH]c(C)c2c(=N)n1-c1cccc(OC)c1)c1cccc(C)c1`, inactive: 94%.
Turning to `CCN(C(=O)CSc1nc2ccccc2n1CC(=O)Nc1ccc(F)cc1F)c1ccccc1`, the survival was inactive: 77%.
For the molecule `COc1ccc(-c2ccc(CCC(=O)O)n2-c2ccc(Cl)cc2C)cc1`, the survival was active: 47%.
In the case of `CCOc1ccccc1C(=O)NC1CCSC1=O` (stereo not drawn), the survival was inactive: 75%.
For the molecule `CCOC(=O)c1cccc(NC(=O)CCc2c(C)nn(-c3ccc(N4CCOCC4)nn3)c2C)c1`, the survival was inactive: 129%.
For the molecule `CNC(=O)c1c(NC(=O)c2ccc(S(=O)(=O)N3CCCCC3C)cc2)sc2c1CCC2` (stereo not drawn), the survival was inactive: 55%.
For `Cc1ccc(Nc2c(-c3cccnc3)nc3ccc(Br)cn23)cc1`, the survival was inactive: 80%.
As for `CCN(CC)c1ncccc1C(=O)NCc1cccs1`, the survival is inactive: 81%.
On to `O=S(=O)(Nc1cccc(-c2ccc(N3CCCC3)nn2)c1)c1ccc(F)c(C(F)(F)F)c1`, for which the survival was inactive: 71%.
Take `COc1ccc(-c2nnc(SCC(=O)N(C)Cc3ccccc3)o2)cc1OC`: the survival was inactive: 90%.
Next, `Cc1cccc(Oc2ccc3c(c2)Oc2ccccc2NC3=O)c1`: inactive: 73%; `Cc1ccc(NC(=O)Cn2cc(S(=O)(=O)N3CCC(C)CC3)c3ccccc3c2=O)c(Br)c1`: inactive: 84%.
Regarding `CCCCN(CCCNC(=O)c1c(C)oc2nc[nH]c(=O)c12)Cc1ccccc1`, the survival is active: 53%.
For the molecule `COc1ccc(C(=O)NCC(c2cccnc2)N2CCc3ccccc32)cc1OC` (stereo not drawn), the survival was inactive: 57%.
As for `Cc1cccc(CNC(=O)c2ccc(NC(=O)N3CCSc4ccccc43)cc2)c1`, the figure is inactive: 66%; as for `COc1cccc(N2CCN(C(=O)CN3C(=O)COc4ccc(S(=O)(=O)N5CCC(C)CC5)cc43)CC2)c1`, inactive: 77%; as for `CCOC(=O)c1cc(-c2ccccc2)n(-c2cccc(C(=O)Nc3cccc(C(C)=O)c3)c2)c1C`, inactive: 89%.
With `Cc1oc2c(c(C)cc3oc(=O)c(CC(=O)NCc4ccccc4)c(C)c32)c1C`, the survival is inactive: 87%.
With `CCc1cc2cc(C)cc(C)c2nc1SCC(=O)N1CCN(C(=O)c2ccco2)CC1`, the survival is inactive: 88%.
As for `COc1ccc(C)cc1-n1nnc(C(=O)Nc2cccc(SC)c2)c1C`, the figure is inactive: 86%; as for `Cc1c(Cl)cccc1NC(=O)Cn1cc2c(n1)CCCC2`, inactive: 87%; as for `CCc1ccc(-n2nc(C)c3c(C)cc(=O)n(CC(=O)Nc4ccccc4C(=O)OC)c32)cc1`, inactive: 67%.
For the molecule `CSCCC(NS(=O)(=O)c1ccc2c(c1)oc(=O)n2C)C(=O)N1CCN(c2ccc(F)cc2)CC1` (stereo not drawn), the survival was inactive: 69%.
`CCCCOc1ccc(C(=O)N/C(=C\c2ccc(Br)cc2)C(=O)NC2CCCCC2)cc1`: the survival is inactive: 58%.
Turning to `Cc1nc2c3ccccc3nc(NNC(=O)CCC(=O)N3CCN(c4cccc(C(F)(F)F)c4)CC3)n2n1`, the survival is inactive: 57%.
Consider `Cc1cccc(-n2ccnc2SCC(=O)Nc2ccc3c(c2)OCO3)c1`, for which the survival was inactive: 75%.
As for `O=C(Nc1cccc(F)c1)C1CCN(c2nc3ccccc3[nH]2)CC1`, the survival was inactive: 94%.
